According to article PMC4336329 (PLoS ONE, 2015):
Only a part is listed here, and it is no random draw. Effects have a minus sign here.

What follows are compounds tested against human ether-à-go-go-related gene (hERG) potassium channel (human, UniProt Q12809) (assay: primary screen, population patch clamp on CHO cells stably expressing hERG; higher = less effect of the substance).
Description: Briefly, Chinese hamster ovary (CHO) cells stably expressing the hERG channel were dislodged from tissue culture flasks and dispensed into PPC plates. […] During the recording, background leak currents were estimated by a 100 ms step to -80 mV from an initial holding potential of -70 mV and subtracted from the subsequent current measurement. The campaign was conducted in two phases using slight differences in recording protocol. In the first phase, the initial voltage pulse used a 100 ms step to -30 mV from a holding potential of -70 mV, a 2 s conditioning step to +25 mV, and a 2 s test step to -30 mV. During the second phase of the screen, the potential during the conditioning step was raised to +45 mV. In both phases of the campaign, a secondary voltage pulse was applied using the same parameters as the second phase initial pulse. The initial and secondary pulses were applied in the absence of compound, and upon application of 1 μM and 10 μM test concentrations. […]
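Further: peak tail current of the secondary pulse compared with the same well before compound.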

Row | SMILES | hERG current change (%, negative = inhibition) at 10uM
1 | Cl.Fc1ccc(C(c2ccc(F)cc2)N2CCN(C/C=C/c3ccccc3)CC2)cc1 | -9.23%
2 | CCN(CC)CCOC(=O)C1(C2CCCCC2)CCCCC1.Cl | -22.1%
3 | Cl.OCCN1CCN(CCCN2c3ccccc3Sc3ccc(C(F)(F)F)cc32)CC1 | -42.5%
4 | CCCCCCCCc1ccc(O)cc1 | 6.97%
5 | CN(C)C(=O)C(CCN1CCC(O)(c2ccc(Cl)cc2)CC1)(c1ccccc1)c1ccccc1.Cl | -77.9%
6 | Clc1ccc(CO/N=C(\Cn2ccnc2)c2ccc(Cl)cc2Cl)c(Cl)c1.O=[N+]([O-])O | 8.99%
7 | CN(C)CCOC(c1ccccc1)c1ccccc1.Cl | -18.8%
8 | C[C@@H]1C[C@H]2[C@@H]3CCC4=CC(=O)C=C[C@]4(C)[C@@]3(F)[C@@H](O)C[C@]2(C)[C@@]1(O)C(=O)COP(=O)([O-])[O-].[Na+] | 9.09%
9 | CC(C)(O)c1ccccc1CC[C@@H](SCC1(CC(=O)[O-])CC1)c1cccc(/C=C/c2ccc3ccc(Cl)cc3n2)c1.[Na+] | 11.3%
10 | CCCCc1oc2ccccc2c1C(=O)c1cc(I)c(OCCN(CC)CC)c(I)c1.Cl | 4.34%
11 | CNCCC(Oc1ccc(C(F)(F)F)cc1)c1ccccc1.Cl (centres unmarked) | -56.2%
12 | CN(C)CC/C=C1\c2ccccc2COc2ccccc21.Cl | -28.3%
13 | Cl.Oc1ccc2c3c1OC1C(O)CC[C@@]4(O)[C@@H](C2)N(CC2CCC2)CC[C@]314 (some centres unmarked) | -1.69%
14 | Clc1ccc(CSC(Cn2ccnc2)c2ccc(Cl)cc2Cl)cc1.O=[N+]([O-])O (centres unmarked) | -1.83%
15 | CCN(CC)CC#CCOC(=O)C(O)(c1ccccc1)C1CCCCC1.Cl (centres unmarked) | -21.8%
16 | CN1C2CCC1CC(OC(c1ccccc1)c1ccccc1)C2.CS(=O)(=O)O (centres unmarked) | -70.7%
17 | CN1CCC(=C2c3ccccc3C=Cc3ccccc32)CC1.Cl | -1.08%
18 | CCN[C@H]1C[C@H](C)S(=O)(=O)c2sc(S(N)(=O)=O)cc21.Cl | 9.82%
19 | CCCN1CCC[C@@H]2Cc3[nH]ncc3C[C@H]21.Cl | 4.96%
20 | CCN(CC)CCOc1ccc(/C(=C(/Cl)c2ccccc2)c2ccccc2)cc1.O=C(O)CC(O)(CC(=O)O)C(=O)O | 8.47%
